We go through 10 molecules from patent US20250332197A1.

To fix the notation:
B1: 1E7-mVH-HC (IgG1) mVL (antibody)
heavy: QVQLQQPGSELVKPGASVKLSCKASGYTFTSYWMHWVKQRPGQGLEWIGMIHPNSGSTNYNEKFKSKATLTVDKSSSTAYMQLSSLTSEDSAVYYCARRYYGSISPDYWGQGTTLTVSS[in this place human IgG1 constant region]
light: DIVMTQSPSSLSVTAGEKVTMSCKSSQSLLNSGNQKNYLTWYQQKPGQPPKLLIYWASTRESGVPDRFTGSGSGTDFTLTISSVQAEDLAVYYCQNDYSYPFTFGSGTKLEIKRTVAAPSVFIFPPSDEQLKSGTASVVCLLNNFYPREAKVQWKVDNALQSGNSQESVTEQDSKDSTYSLSSTLTLSKADYEKHKVYACEVTHQGLSSPVTKSFNRGEC
B2: 1E7-huVH3huVL2 (antibody, human IgG4 S228P, kappa)
heavy: QVQLVQSGAEVKKPGASVKVSCKASGYTFTSYWMHWVRQAPGQGLEWIGMIHPNSGSTNYNEKFKSRVTMTVDTSTSTAYMELSSLRSEDTAVYYCARRYYGSISPDYWGQGTTVTVSSASTKGPSVFPLAPCSRSTSESTAALGCLVKDYFPEPVTVSWNSGALTSGVHTFPAVLQSSGLYSLSSVVTVPSSSLGTKTYTCNVDHKPSNTKVDKRV[in this place human IgG4 Fc with S228P (EU numbers)]
light: DIQMTQSPSSLSASVGDRVTMTCKSSQSLLNSGNQKNYLTWYQQKPGKAPKLLIYWASTRESGVPSRFSGSGSGTDFTLTISSLQPEDFATYYCQNDYSYPFTFGGGTKLEIKRTVAAPSVFIFPPSDEQLKSGTASVVCLLNNFYPREAKVQWKVDNALQSGNSQESVTEQDSKDSTYSLSSTLTLSKADYEKHKVYACEVTHQGLSSPVTKSFNRGEC
B3: 1B6-huVH3huVL1 (antibody, human IgG4 S228P, kappa)
heavy: QVQLVQSGAEVKKPGASVKVSCKASGYTFTDYNMHWVRQAPGQRLEWIGYINPNNGGTSYNQKFKGRVTITVDTSASTAYMELSSLRSEDTAVYYCVTTRYLAVWGQGTTVTVSSASTKGPSVFPLAPCSRSTSESTAALGCLVKDYFPEPVTVSWNSGALTSGVHTFPAVLQSSGLYSLSSVVTVPSSSLGTKTYTCNVDHKPSNTKVDKRV[in this place human IgG4 Fc with S228P (EU numbers)]
light: B2 light with Q3V, A13V, L30F, S66D, L84V, Y93F, F102L
B4: 1E7-huVH2huVL2 (antibody, human IgG4 S228P, kappa)
heavy: B2 heavy with V20L, V68A, M70L
light: B2 light
B5: 1E7-huVH1huVL1 (antibody, human IgG4 S228P, kappa)
heavy: B2 heavy with V20L, A40R, R67K, V68A, M70L, T74K
light: B2 light with Q3V, A13V, K48Q, A49P, S66D, L84V
B6: 1B6-huVH3-HC (IgG1) huVL3 (antibody)
heavy: QVQLVQSGAEVKKPGASVKVSCKASGYTFTDYNMHWVRQAPGQRLEWIGYINPNNGGTSYNQKFKGRVTITVDTSASTAYMELSSLRSEDTAVYYCVTTRYLAVWGQGTTVTVSS[in this place human IgG1 constant region]
light: B2 light with M21I, K24R, L30F, F102L
B7: 1B6-huVH4huVL3 (antibody, human IgG4 S228P, kappa)
heavy: B3 heavy with I48M, K65Q
light: B2 light with M21I, K24R, L30F, F102L
B8: 1B6-huVH4-HC (IgG1) huVL3 (antibody)
heavy: B6 heavy with I48M, K65Q
light: B2 light with M21I, K24R, L30F, F102L
B9: 1B6-huVH3-HC (IgG1) huVL1 (antibody)
heavy: B6 heavy
light: B2 light with Q3V, A13V, L30F, S66D, L84V, Y93F, F102L
B10: 1E7-huVH3huVL1 (antibody, human IgG4 S228P, kappa)
heavy: B2 heavy
light: B2 light with Q3V, A13V, K48Q, A49P, S66D, L84V

Substitutions are numbered along the chain they refer to.

This test addresses Claudin18.2 on cells (A20~18.2 stable expression cell line; KATOIII-Claudin18.2 cells), P56856. In words: cell-based or functional assay.
On to B1, for which the The fluorescence intensity (MFI), internalization (pHrodo, FACS), antibody 2 µg/mL stood at 3480 MFI and the The proportion of internalized cells (%), antibody 2 µg/mL stood at 7.07%.
Regarding B2, the The fluorescence intensity (MFI), internalization (pHrodo, FACS), antibody 2 µg/mL is 2600 MFI and the The proportion of internalized cells (%), antibody 2 µg/mL was determined as 1.44%.
The like results for B3 were, in that order, 6300 MFI and 72.4%.
In turn, B4 displayed a The fluorescence intensity (MFI), internalization (pHrodo, FACS), antibody 2 µg/mL of 2640 MFI and a The proportion of internalized cells (%), antibody 2 µg/mL of 1.54%.
B5 showed a The fluorescence intensity (MFI), internalization (pHrodo, FACS), antibody 2 µg/mL of 3080 MFI and a The proportion of internalized cells (%), antibody 2 µg/mL of 3.86%.
The like results for B6 were, in that order, 9700 MFI and 80.3%.
As for B7, the The fluorescence intensity (MFI), internalization (pHrodo, FACS), antibody 2 µg/mL turned out to be 3820 MFI and the The proportion of internalized cells (%), antibody 2 µg/mL is 10.5%.
On the same counts, the results for B8 are 6990 MFI and 73.8%.
The like results for B9 were, in that order, 10000 MFI and 81.6%.
B10 displayed a The fluorescence intensity (MFI), internalization (pHrodo, FACS), antibody 2 µg/mL of 2750 MFI and a The proportion of internalized cells (%), antibody 2 µg/mL of 2.07%.
